# Out of some 94,000 compounds screened, about 4,000 (4.3%) were called active. The shares of active, inactive and inconclusive entries below differ from those in the screen. Calls come from the whole dose curve; as a rule, active = well fitted inhibition curve with a large enough effect; inconclusive = small, poorly fitted or top-dose-only effect; inactive = no such curve, though single readings can be large or run the other way. A potency beside an inconclusive call is a rough fit, not a confirmed value.
# Assay: Cytotoxic Profiling in NIH 3T3 Cell Line of Diverse Libraries Using Quantitative High-Throughput Screening; note: nearly all actives have a fitted effect of over 55% in size
# Conditions: NIH 3T3 viability, CellTiter-Glo ATP luminescence, 48-72 h; activity change, negative = cytotoxicity: at 96.7 µM (top of the series) unless noted; series mostly up to 96.7 µM
# Method in brief: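 Mouse fibroblast NIH 3T3 cells, 400 per well, received compound via pintool and were incubated for 48 or 72 hr prior to CellTiter-Glo ATP luminescence measurement.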
# % is set by controls: 0 for no effect and ±100 for the full control effect; potency is the fitted concentration of half-maximal effect; tags give direction and shape of the fitted curve.
SMILES,Potency,"activity change, negative = cytotoxicity",outcome
COc1ccccc1-c1cccc(CN2CCC(NC(=O)c3ccccc3F)CC2)c1,"inconclusive: 50.1 µM [inhibitor, partial curve, poor fit]",,
CN1Cc2cc(F)ccc2N(CC(O)COc2ccccc2)CCC1=O (stereo unspecified),"inconclusive: 8.91 µM [inhibitor, partial curve, poor fit]",,
Clc1cccc(-c2cnc3n2C[C@H](CNCc2ccccc2)OC3)c1,active: 79.4 µM,,
O=C(Nc1ccccc1F)N1CC2CCC(C1)N2Cc1cccc(Cl)c1,"inconclusive: 70.8 µM [inhibitor, single point]",,
O=C(c1ccc(F)c(F)c1)N1CCC[C@H]1c1nc(-c2ccccc2)no1,"inconclusive: 56.2 µM [inhibitor, partial curve, poor fit]",,
O=C1c2c(nc(COc3cc(F)cc(F)c3)n2Cc2ccccc2)NCCN1Cc1ccccc1,active: 25.1 µM,,
O=C(Cc1ccccc1F)N1CCCC(Cc2nncn2Cc2ccccc2)C1 (stereo unspecified),,inactive: -20.6%,
COc1ccc(Cn2c(=O)c(C(=O)N3CCN(C(=O)NC4CCCC4)CC3)nc3cccnc32)cc1,,inactive: -15.3%,
N#Cc1ccccc1CN1CCNc2nc(COc3cccc(N4CCOCC4)c3)n(Cc3ccccc3)c2C1=O,"inconclusive: 39.8 µM [inhibitor, partial curve]",,
COc1cccc(CN2CC3(C2)C(=O)N(Cc2ccccc2F)C(=O)[C@@H]2C[C@@H](O)CN23)c1,,inactive: -5.45%,
COc1ccc(-c2cc(-c3ccc(CO)cc3)cn3cncc23)cc1,"inconclusive: 56.2 µM [inhibitor, partial curve, poor fit]",,
O=C(NC1CCOCC1)C1=NO[C@@H]2CN(c3ccc(F)c(Cl)c3)C[C@H]12,"inconclusive: 79.4 µM [inhibitor, partial curve]",,
N#Cc1cccc(C2CCN(c3cc(C4CC4)ncn3)CC2)c1,"inconclusive: 25.1 µM [inhibitor, full curve]",,
C=CCc1ccccc1OCCN(C)Cc1ccccc1C(=O)O,"inconclusive: 89.1 µM [inhibitor, partial curve, poor fit]",,
COc1ncccc1CN1C[C@H]2[C@H](C1)[S+](=O)([O-])C(C)(C)C(=O)N2CC1CCOCC1,"inconclusive: 56.2 µM [inhibitor, partial curve, poor fit]",,
COc1ccc(C(=O)N2CCN(c3nccc(Nc4ccccc4F)n3)CC2)cc1,"inconclusive: 50.1 µM [inhibitor, partial curve, poor fit]",,
COc1ccc(N2CC(C(=O)N3CCN(Cc4ccccc4)CC3)NC2=O)cc1 (stereo unspecified),"inconclusive: 44.7 µM [inhibitor, partial curve, poor fit]",,
CC(C)n1nc(OC(C)(C)C(=O)NCc2ccncc2)c2cc(CN3CCOCC3)ccc21,"inconclusive: 11.2 µM [inhibitor, full curve, poor fit]",,
Clc1cccc(CN2CCOC[C@H](Oc3cccnc3)C2)c1,"inconclusive: 56.2 µM [inhibitor, partial curve, poor fit]",,
O=C(Nc1ccc(F)cc1)c1nc2cccnc2n(Cc2ccccc2)c1=O,"inconclusive: 50.1 µM [inhibitor, partial curve, poor fit]",,
CN(Cc1ccsc1)c1cc(C2CC(O)C2)ncn1 (stereo unspecified),,inactive: -12.8%,

SMILES,Potency,"activity change, negative = cytotoxicity",outcome
CCOCC1(C)COc2ccc(C(=O)Nc3ccccn3)cc2N1 (stereo unspecified),"inconclusive: 100 µM [inhibitor, single point]",,
CCCNc1cc(N2CCC(CCC(=O)NCc3ccccc3Cl)CC2)ncn1,,inactive: -27.4%,
Cc1ccsc1C(=O)NC1CCN(c2cc(-c3ccc(Cl)cc3)[nH]n2)C1 (stereo unspecified),"inconclusive: 44.7 µM [inhibitor, partial curve, poor fit]",,
CNC(=O)c1cc2cc(-c3c(C)noc3C)nc(-c3cccc(OC)c3OC)c2o1,"inconclusive: 25.1 µM [inhibitor, full curve]",,
COC(=O)CC[C@H]1CNC(=O)[C@@H]2[C@@H](CCN2Cc2nc3ccccc3n2C)N1C,"inconclusive: 112 µM [inhibitor, partial curve, poor fit]",,
O=C(c1ccc2[nH]ncc2c1)N1CCOCC12CCN(Cc1cccc(OC(F)(F)F)c1)CC2,,inactive: -14.8%,
CCOc1cc(=O)n2c(c1C(=O)N1CCCc3ccccc31)CCCC2,"inconclusive: 7.08 µM [inhibitor, full curve, poor fit]",,
Cc1cnc(C2CN(S(=O)(=O)c3ccccc3)C2)n1Cc1cccnc1,,inactive: -19.6%,
O=C1NCCCCCN(Cc2cccnc2)[C@@H]2CN(C(=O)NC3CCCCC3)CC[C@@H]12,,inactive: -2.06%,
N#Cc1cccc(CN2CC(N3CC(C(=O)NCc4ccccc4)CC3=O)C2)c1 (stereo unspecified),"inconclusive: 70.8 µM [inhibitor, partial curve, poor fit]",,
O=C(C1CC1)N1CCCC(c2nn(-c3ccccc3)c(=O)[nH]2)C1 (stereo unspecified),"inconclusive: 112 µM [inhibitor, single point]",,
CCOC(=O)[C@H]1[C@@H](O)C(=O)N(C(C)C)C12CCN(C(=O)Nc1ccc3c(c1)OCO3)CC2,"inconclusive: 35.5 µM [inhibitor, single point]",,
O=C1c2c(nc(CNCc3ccc4c(c3)OCO4)n2Cc2ccccc2)NCCN1CCOc1ccccc1,active: 39.8 µM,,
COc1ccc(CCNC(=O)C[C@@H]2c3nc(NC(=O)CC(C)(C)C)sc3C[C@@H]3[C@](C)(CO)[C@H](O)CC[C@]32C)cc1OC,,inactive: -23.3%,
COc1ccc(CNC(=O)CC[C@H]2CNC(=O)[C@@H]3[C@@H](CCN3Cc3nc4ccccc4n3C)N2C)cc1,"inconclusive: 100 µM [inhibitor, single point]",,
O=C(NC1CCCCCC1)c1nnn2cc(-c3ccc(Cl)cc3)[nH]c(=O)c12,"inconclusive: 50.1 µM [inhibitor, partial curve, poor fit]",,
O=C(Cn1ccn2nc(-c3ccc(F)cc3)c(CO)c2c1=O)N1CCCc2ccccc21,"inconclusive: 22.4 µM [inhibitor, full curve, poor fit]",,
Cc1noc2c(NCc3ccccc3)cc(-c3ccccc3)nc12,"inconclusive: 31.6 µM [inhibitor, full curve]",,
COC(=O)CNC(=O)NCC(=O)N1CCCCCNC(=O)CC1c1ccccc1 (stereo unspecified),,,inactive
O=C(c1ccccc1)N(C1CC1)C1CCOC2(CCNCC2)C1 (stereo unspecified),,inactive: -9.89%,
CC(C)NC(=O)c1ccc2nc(-c3ccccn3)oc2c1,"inconclusive: 44.7 µM [inhibitor, partial curve, poor fit]",,

SMILES,Potency,"activity change, negative = cytotoxicity",outcome
COc1cccc(C(=O)NC2CCN(C(=O)c3ccc(-c4ccccc4OC)cc3)CC2)c1,"inconclusive: 35.5 µM [inhibitor, partial curve]",,
c1ccc(-c2nnc3ccc(NCc4cccs4)nn23)nc1,"inconclusive: 89.1 µM [inhibitor, partial curve]",,
CCCCOC(=O)N1CCC(=O)N(CC)C[C@H]2COc3cc(OC)ccc3[C@H]21,"inconclusive: 50.1 µM [inhibitor, partial curve, poor fit]",,
CC(NC(=O)C1(c2ccc(NS(C)(=O)=O)cc2)CCCCC1)c1ccccc1 (stereo unspecified),,inactive: -7.86%,
COc1ccc(-c2noc(-c3cccn3CC(=O)N(C)c3ccccc3)n2)cc1F,,,inactive
CC1(c2ccccc2)N(Cc2ccccc2)C(=O)OC12CCN(Cc1cccc(O)c1)CC2 (stereo unspecified),"inconclusive: 50.1 µM [inhibitor, partial curve, poor fit]",,
Cc1nn(-c2ccccc2)c2c1C(C)N(C1CCN(C(=O)Cc3ccc(F)cc3)C1)C2=O (stereo unspecified),"inconclusive: 50.1 µM [inhibitor, partial curve, poor fit]",,
CCCCc1cc(C[C@@H]2C[C@H](NC(=O)N3CCOCC3)C2(C)C)no1,"inconclusive: 63.1 µM [inhibitor, full curve, poor fit]",,
CN1[C@@H](CCC(=O)NCc2cccs2)CNC(=O)[C@@H]2[C@H]1CCN2Cc1cccs1,,inactive: -18.5% [at 174 µM],
CC(C)C[C@@H]1N[C@H](C(=O)NCCCn2ccnc2)Cc2c[nH]c3cccc1c23,"inconclusive: 112 µM [inhibitor, partial curve, poor fit]",,
CCc1nncn1C1CCN(S(=O)(=O)c2ccc(Cl)c(C)c2)CC1,"inconclusive: 44.7 µM [inhibitor, partial curve, poor fit]",,
CNC(=O)Nc1ccc(C2(C(=O)N3CCN(c4ccc(Cl)cc4)CC3)CCC2)cc1,"inconclusive: 70.8 µM [inhibitor, single point]",,
Cc1ccccc1C(=O)N1CCC(c2nn(-c3ccc(Cl)cc3)c(=O)[nH]2)CC1,"inconclusive: 50.1 µM [inhibitor, partial curve, poor fit]",,
C=CCN1C[C@H]2COc3ccccc3[C@H]2N(C(=O)OCCCC)CCC1=O,"inconclusive: 50.1 µM [inhibitor, partial curve, poor fit]",,
O=C1NCc2ccccc2CC12CCCN(Cc1ccccc1OC(F)(F)F)C2 (stereo unspecified),"inconclusive: 50.1 µM [inhibitor, partial curve, poor fit]",,
CN(Cc1cccc(N2CCN(C(=O)OC(C)(C)C)CC2)c1)[S+](C)(=O)[O-],"inconclusive: 44.7 µM [inhibitor, partial curve, poor fit]",,
O=C(Cc1ccccc1F)N1CCC(Oc2cccc(F)c2)C1 (stereo unspecified),,inactive: -29%,
Cc1nc(C(=O)N2CCCC(c3[nH]ncc3Cc3ccccc3)C2)cs1 (stereo unspecified),"inconclusive: 79.4 µM [inhibitor, partial curve, poor fit]",,
Cc1noc(C)c1-c1cc2cc(CO)oc2c(NCc2ccc3c(c2)OCO3)n1,"inconclusive: 50.1 µM [inhibitor, partial curve, poor fit]",,

# Reference: PubChem BioAssay AID1345082 (National Center for Advancing Translational Sciences (NCATS), 2018)
